# Results taken from the supplement of paper PMC8728848.
# This is one part of the list.
# Experiments:
# Test in all cases: glycan array binding signal (z-score within array); higher = stronger binding
# Conditions in all cases: glycan notation: IUPAC condensed, linker removed
# [1] = target: Fuc(a1-2)[Gal(a1-4)]Gal(b1-4)GlcNAc
# Outline: (§1)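 Negative Z-scores can be read as non-binding. The Z-score is calculated within each array and then averaged across arrays of one protein sequence at different concentrations or buffers and across linkers. Arrays, 3228 in all, were curated from the Consortium for Functional Glycomics database and kept only where the protein sequence was available.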
# [2] = target: Fuc(a1-2)[GalNAc(a1-3)]Gal
# Outline: as §1
# [3] = target: Fuc(a1-2)[GalNAc(a1-3)]Gal(b1-3)GalNAc(a1-3)[Fuc(a1-2)]Gal(b1-4)GlcNAc
# Outline: as §1
# [4] = target: Fuc(a1-2)[GalNAc(a1-3)]Gal(b1-3)GalNAc(b1-3)Gal(a1-4)Gal(b1-4)Glc
# Outline: as §1
# [5] = target: Fuc(a1-2)[GalNAc(a1-3)]Gal(b1-3)GlcNAc
# Outline: as §1
# [6] = target: Fuc(a1-2)[GalNAc(a1-3)]Gal(b1-3)GlcNAc(b1-2)Man(a1-3)[Fuc(a1-2)[GalNAc(a1-3)]Gal(b1-3)GlcNAc(b1-2)Man(a1-6)]Man(b1-4)GlcNAc(b1-4)GlcNAc
# Outline: as §1
# [7] = target: Fuc(a1-2)[GalNAc(a1-3)]Gal(b1-3)GlcNAc(b1-2)Man(a1-3)[Fuc(a1-2)[GalNAc(a1-3)]Gal(b1-3)GlcNAc(b1-2)Man(a1-6)]Man(b1-4)GlcNAc(b1-4)[Fuc(a1-6)]GlcNAc
# Outline: as §1
# [8] = target: Fuc(a1-2)[GalNAc(a1-3)]Gal(b1-3)GlcNAc(b1-3)GalNAc
# Outline: as §1
# [9] = target: Fuc(a1-2)[GalNAc(a1-3)]Gal(b1-3)GlcNAc(b1-6)GalNAc
# Outline: as §1
# [10] = target: Fuc(a1-2)[GalNAc(a1-3)]Gal(b1-4)Glc
# Outline: as §1
# [11] = target: Fuc(a1-2)[GalNAc(a1-3)]Gal(b1-4)GlcNAc
# Outline: as §1
# [12] = target: Fuc(a1-2)[GalNAc(a1-3)]Gal(b1-4)GlcNAc(b1-2)Man
# Outline: as §1
# [13] = target: Fuc(a1-2)[GalNAc(a1-3)]Gal(b1-4)GlcNAc(b1-2)Man(a1-3)[Fuc(a1-2)[GalNAc(a1-3)]Gal(b1-4)GlcNAc(b1-2)Man(a1-6)]Man(b1-4)GlcNAc(b1-4)GlcNAc
# Outline: as §1
# [14] = target: Fuc(a1-2)[GalNAc(a1-3)]Gal(b1-4)GlcNAc(b1-2)Man(a1-3)[Fuc(a1-2)[GalNAc(a1-3)]Gal(b1-4)GlcNAc(b1-2)Man(a1-6)]Man(b1-4)GlcNAc(b1-4)[Fuc(a1-6)]GlcNAc
# Outline: as §1
# [15] = target: Fuc(a1-2)[GalNAc(a1-3)]Gal(b1-4)GlcNAc(b1-3)Gal(b1-4)GlcNAc
# Outline: as §1
# [16] = target: Fuc(a1-2)[GalNAc(a1-3)]Gal(b1-4)GlcNAc(b1-3)Gal(b1-4)GlcNAc(b1-3)Gal(b1-4)GlcNAc
# Outline: as §1
# [17] = target: Fuc(a1-2)[GalNAc(a1-3)]Gal(b1-4)GlcNAc(b1-3)GalNAc
# Outline: as §1
# [18] = target: Fuc(a1-2)[GalNAc(a1-3)]Gal(b1-4)GlcNAc(b1-3)[Fuc(a1-2)[GalNAc(a1-3)]Gal(b1-4)GlcNAc(b1-6)]GalNAc
# Outline: as §1
# [19] = target: Fuc(a1-2)[GalNAc(a1-3)]Gal(b1-4)GlcNAc(b1-6)GalNAc
# Outline: as §1
# [20] = target: Fuc(a1-2)[GalNAc(a1-3)]Gal(b1-4)[Fuc(a1-3)]GlcNAc
# Outline: as §1
# [21] = target: Fuc(a1-2)[GalNAc(a1-3)]Gal(b1-4)[Fuc(a1-3)]GlcNAc(b1-3)GalNAc
# Outline: as §1
# [22] = target: Fuc(a1-2)[GalNAc(a1-4)]Gal(b1-4)GlcNAc
# Outline: as §1
# [23] = target: Fuc(a1-2)[GalNAc(b1-3)]Gal
# Outline: as §1
# [24] = target: Fuc(a1-3)GlcNAc
# Outline: as §1
# [25] = target: Fuc(a1-3)[Gal(b1-4)]Glc6S
# Outline: as §1
# [26] = target: Fuc(a1-3)[Gal(b1-4)]GlcNAc
# Outline: as §1
# [27] = target: Fuc(a1-3)[Gal(b1-4)]GlcNAc(b1-2)Man
# Outline: as §1
# [28] = target: Fuc(a1-3)[Gal(b1-4)]GlcNAc(b1-2)Man(a1-3)[Fuc(a1-3)[Gal(b1-4)]GlcNAc(b1-2)Man(a1-6)]Man(b1-4)GlcNAc(b1-4)GlcNAc
# Outline: as §1
# [29] = target: Fuc(a1-3)[Gal(b1-4)]GlcNAc(b1-2)Man(a1-3)[Fuc(a1-3)[Gal(b1-4)]GlcNAc(b1-2)Man(a1-6)]Man(b1-4)GlcNAc(b1-4)[Fuc(a1-6)]GlcNAc
# Outline: as §1
# [30] = target: Fuc(a1-3)[Gal(b1-4)]GlcNAc(b1-3)Gal(b1-3)[Fuc(a1-4)]GlcNAc
# Outline: as §1
# [31] = target: Fuc(a1-3)[Gal(b1-4)]GlcNAc(b1-3)Gal(b1-4)[Fuc(a1-3)]GlcNAc
# Outline: as §1
# [32] = target: Fuc(a1-3)[Gal(b1-4)]GlcNAc(b1-3)Gal(b1-4)[Fuc(a1-3)]GlcNAc(b1-3)Gal(b1-4)[Fuc(a1-3)]GlcNAc
# Outline: as §1
# [33] = target: Fuc(a1-3)[Gal(b1-4)]GlcNAc(b1-3)GalNAc
# Outline: as §1
# [34] = target: Fuc(a1-3)[Gal(b1-4)]GlcNAc(b1-6)GalNAc
# Outline: as §1
# [35] = target: Fuc(a1-3)[Gal(b1-4)]GlcNAc(b1-6)[Gal(b1-3)GlcNAc(b1-3)]Gal(b1-4)Glc
# Outline: as §1
# [36] = target: Fuc(a1-3)[Gal(b1-4)]GlcNAc6S
# Outline: as §1
# [37] = target: Fuc(a1-3)[Gal3S(b1-4)]Glc
# Outline: as §1
# [38] = target: Fuc(a1-3)[Gal3S(b1-4)]GlcNAc
# Outline: as §1
binder,measurement,setting,value
PX14375l-pdi-526-25-526 (Parabacteroides distasonis) (protein) DEEPKSTLTDVAYYKTQSQMESNVNYLYRTGAIGSYVDFGSAYIGPFASIQEELTGYFSNSYEGQEIVCRYTRELTRQQNTMQLASKMDKVWDDCYRGINVANGAIKHMPEVPMDQATADRLTAEAKFFRAFNYFYLVKTFGAVPFYTDPYELAENMELPRTETSTIYNQIESDLKDAMNVLPEATFAANGHRITKYVAAMTLTDVYMYQHKYAEAAETVRIVVNSNHKLTTNDDLAMNSAFNKLRSTDDLDEAIYAYEYDNQISPSNWLPTYAFDGDASSNGLFGTYAITQKVHGPNDRYLNIYESNDLRRQPNQFYHWTYTNPKTGKVWNSVGNAACCWYYYDEDALLTTGRGTKDWNVYRYAEALLDAAESIAQSTGVTAEAAGYLAQVKARANMEGKTAAEIASSLQSMGKQAFIEECWTERLRELPLEFKMWDMCVRTGMFPNISETTPGQVTYIPLVGAKNASGATIKESDLLWPLSVNEIQRNPSLTQNEGYSAK,glycan array binding signal (z-score),[1],-0.171
same,glycan array binding signal (z-score),[2],-0.057
same,glycan array binding signal (z-score),[3],-0.255
same,glycan array binding signal (z-score),[4],-0.249
same,glycan array binding signal (z-score),[5],-0.036
same,glycan array binding signal (z-score),[6],2.42
same,glycan array binding signal (z-score),[7],-0.188
same,glycan array binding signal (z-score),[8],0.053
same,glycan array binding signal (z-score),[9],-0.289
same,glycan array binding signal (z-score),[10],-0.176
same,glycan array binding signal (z-score),[11],-0.32
same,glycan array binding signal (z-score),[12],-0.233
same,glycan array binding signal (z-score),[13],-0.372
same,glycan array binding signal (z-score),[14],-0.278
same,glycan array binding signal (z-score),[15],-0.186
same,glycan array binding signal (z-score),[16],-0.032
same,glycan array binding signal (z-score),[17],-0.169
same,glycan array binding signal (z-score),[18],-0.281
same,glycan array binding signal (z-score),[19],-0.22
same,glycan array binding signal (z-score),[20],0.033
same,glycan array binding signal (z-score),[21],0.492
same,glycan array binding signal (z-score),[22],-0.031
same,glycan array binding signal (z-score),[23],-0.041
same,glycan array binding signal (z-score),[24],-0.174
same,glycan array binding signal (z-score),[25],-0.028
same,glycan array binding signal (z-score),[26],-0.09
same,glycan array binding signal (z-score),[27],-0.355
same,glycan array binding signal (z-score),[28],0.078
same,glycan array binding signal (z-score),[29],-0.178
same,glycan array binding signal (z-score),[30],-0.357
same,glycan array binding signal (z-score),[31],0.013
same,glycan array binding signal (z-score),[32],-0.158
same,glycan array binding signal (z-score),[33],-0.404
same,glycan array binding signal (z-score),[34],2.66
same,glycan array binding signal (z-score),[35],-0.366
same,glycan array binding signal (z-score),[36],0.147
same,glycan array binding signal (z-score),[37],-0.391
same,glycan array binding signal (z-score),[38],-0.255
